The whole screen tested about 94,000 compounds, of which about 4,000 (4.3%) were called active. Inconclusive results, whose numbers are uncertain, are shown with a selection of clear calls. Calls follow the shape of the dose curve; as a rule, active = well fitted inhibition curve with a large enough effect; inconclusive = small, poorly fitted or top-dose-only effect; inactive = no such curve, though single readings can be large or run the other way. A potency beside an inconclusive call is a rough fit, not a confirmed value.
Assay: Cytotoxic Profiling in NIH 3T3 Cell Line of Diverse Libraries Using Quantitative High-Throughput Screening; also: nearly all actives have a fitted effect of over 55% in size
Conditions: NIH 3T3 viability, CellTiter-Glo ATP luminescence, 48-72 h; activity change, negative = cytotoxicity: at 96.7 µM (top of the series); series mostly up to 96.7 µM
How it was run: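 NIH 3T3 cells at 400 cells/well received 23 nL of compound by pintool and were incubated 48 or 72 h at 37 °C. Viability was read as ATP-coupled CellTiter-Glo luminescence.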
% is scaled to controls: 0 for no effect and ±100 for the full control effect; potency is read from the fitted curve at half-maximal effect; tags tell the direction and shape of the fitted curve.

Structure (SMILES)	Potency	activity change, negative = cytotoxicity	outcome
COC1=C(C(=O)N(C)Cc2ccccc2)N(c2c(C)cccc2C)S(=O)(=O)c2ccccc21	inconclusive: 44.7 µM [inhibitor, partial curve, poor fit]		
Nc1ncccc1CN1CC[C@@H]2OCC(=O)N(c3ccccc3)[C@H]2CC1	inconclusive: 50.1 µM [inhibitor, partial curve]		
Cc1ccc(C(=O)N2C[C@H](c3nc(-c4ccccc4)no3)[C@@H](C)C2)cn1	inconclusive: 39.8 µM [inhibitor, partial curve, poor fit]		
COc1ccc(NC(=O)Cn2c(=O)n(-c3cccc(C)c3)c(=O)c3c2cc(C)n3C)cc1OC	inconclusive: 56.2 µM [inhibitor, partial curve, poor fit]		
Cc1noc(C)c1COc1ccc(C(=O)N[C@@H]2CN(C(=O)Nc3cccc(C(F)(F)F)c3)CCC[C@H]2O)cc1	inconclusive: 35.5 µM [inhibitor, partial curve, poor fit]		
Cc1ccc(C(=O)N2C[C@@H](CO)[C@H](c3ccncc3)C2)c(C)c1		inactive: -15%	
O=C(C1CCCCN1Cc1ccc(-c2cccs2)cc1)N1CCN(Cc2ccccc2)CC1 (centres undefined)	active: 31.6 µM		
COc1coc(C(=O)N2CCCC(c3ccccc3)(c3ccccc3)C2)cc1=O	inconclusive: 79.4 µM [inhibitor, single point]		
Cc1cc(C)c(CNC(=O)c2cc(-c3ccccc3)cc3c2OCCN3C)c(=O)[nH]1	inconclusive: 89.1 µM [inhibitor, partial curve]		
CCc1cccc(OCC(=O)c2ccc3c(c2)N(CC(=O)N(C)Cc2ccccc2)C(=O)CO3)c1	inconclusive: 22.4 µM [inhibitor, partial curve]		
O=C([C@@H]1C[C@H](Oc2ccccc2)CN1C(=O)c1ccsc1)N1CCOCC1			inactive
CCn1nccc1C(=O)NC1CCN(c2cc(-c3ccccc3)[nH]n2)CC1		inactive: -14.2%	
COc1cccc(-c2cn3cc(C(=O)N4CCCCC4)nc3s2)c1	active: 39.8 µM		
CCCCN1C(=O)C(CC(=O)N2CCCCC2)Sc2ncccc21 (centres undefined)	inconclusive: 39.8 µM [inhibitor, partial curve, poor fit]		
Fc1ccc(-c2cnc3n2C[C@H](CNC2CCOCC2)OC3)cc1	inconclusive: 89.1 µM [inhibitor, partial curve, poor fit]		
O=C(c1ccccc1)N1CCn2c(nn(-c3ccc(Cl)cc3)c2=O)C1		inactive: -16%	
COC(=O)CNC(=O)C1CCCN1c1nccc(Nc2ccc(C)cc2)n1 (centres undefined)	inconclusive: 50.1 µM [inhibitor, partial curve, poor fit]		
COc1ccc(C(=O)N2CCCN(c3ccc4nnc(-c5ccccc5)n4n3)CC2)cc1	inconclusive: 50.1 µM [inhibitor, partial curve, poor fit]		
O=C(C[C@@H]1CCNC[C@@H]1Cc1cc(CSc2ccccc2)on1)NCCN1CCOCC1			inactive
O=C(NCc1cccc(Cl)c1)c1cc2n(n1)CC(c1ccc3c(c1)OCO3)OC2 (centres undefined)	inconclusive: 44.7 µM [inhibitor, partial curve, poor fit]		
Cc1cc(C)cc(NC(=O)N2CCC(CCc3nc(C4CCOCC4)no3)CC2)c1	inconclusive: 50.1 µM [inhibitor, partial curve, poor fit]		
Cc1cn2nc(C(=O)NC(C)c3ccccc3)cc2c(N2CCCC2)n1 (centres undefined)	inconclusive: 50.1 µM [inhibitor, partial curve, poor fit]		

Structure (SMILES)	Potency	activity change, negative = cytotoxicity	outcome
Cc1cccc(C)c1-c1nnc2ccc(C(=O)NCC3CC3)cn12		inactive: -20.3% [at 138 µM]	
O=C(NCCc1ccccc1F)c1ccc2nccn2c1		inactive: 2.08% [at 138 µM]	
Cc1noc(C)c1-c1cc2cc(C(C)C)oc2c(N2CCN(C)CC2)n1	inconclusive: 7.94 µM [inhibitor, full curve, poor fit]		
CCCNC(=O)N1CCC(Cn2c(C)cnc2C2CC2)CC1			inactive
Cc1ccc(NC(=O)N2CCCC(Cn3cnc4cccnc43)C2)c(C)c1 (centres undefined)		inactive: -11.7%	
O=C(CN1C(=O)COc2ccc(C(=O)COc3ccccc3Cl)cc21)NCC1CCCO1 (centres undefined)		inactive: 3%	
COc1ccc(CN2C=C(C(=O)OCc3nc(-c4cccc(OC)c4)no3)C(C)=NS2(=O)=O)cc1	inconclusive: 12.6 µM [inhibitor, full curve]		
COc1ccc(C)cc1NC(=O)N1CCC(OC2CCN(Cc3ccccc3)CC2)CC1		inactive: -24.6%	
O=C(Nc1ncc(-c2cccc(F)c2)c2c1OCC2)c1ccc(F)c(Cl)c1	inconclusive: 22.4 µM [inhibitor, partial curve, poor fit]		
CC(C)[C@@H]1CN(S(=O)(=O)c2ccc(Cl)cc2Cl)C[C@H]1N(C)C	inconclusive: 79.4 µM [inhibitor, partial curve, poor fit]		
O=C(Cc1ccccc1)NC1CCN(c2cc(-c3ccccc3)[nH]n2)CC1	inconclusive: 31.6 µM [inhibitor, partial curve, poor fit]		
CCC(CC)C(=O)N1C[C@@H]2CCCN3CCC[C@@H]([C@H]23)[C@H]1CCCC(=O)N1CCOCC1		inactive: 3.3%	
COc1cccc(OCc2nc3c(n2Cc2ccccc2)C(=O)N(Cc2ccccc2C#N)CCN3)c1	inconclusive: 11.2 µM [inhibitor, full curve]		
COc1cccc(CN2CCOC3(CCN(Cc4cccc(Cl)c4)CC3)C2=O)c1	inconclusive: 89.1 µM [inhibitor, partial curve, poor fit]		
O=C1CCC2(CNC(=O)c3ccncc3)CCCC=C2N1 (centres undefined)		inactive: -2.12%	
Cc1noc(C)c1-c1cnc(NC(=O)c2ccc(Cl)cc2)c2c1CCO2	active: 89.1 µM		
O=C(NCc1cccc(C(F)(F)F)c1)c1cc(-c2cc(Cl)cc(Cl)c2)c2nncn2n1		inactive: 2.82%	
COc1ccc(-c2noc([C@@H](C)NS(=O)(=O)CC(C)C)c2C(=O)O)cc1			inactive [at 174 µM]
COc1ccc(-c2cc(N3CCC(NC(=O)Cc4ccccc4C)CC3)n[nH]2)cc1	inconclusive: 44.7 µM [inhibitor, partial curve, poor fit]		
COc1ccc(-c2cnc([C@@H]3COCCN3C3CCCCC3)[nH]2)cc1	inconclusive: 79.4 µM [inhibitor, partial curve]		
CN(C)C(=O)c1ccnc(-c2nnc3ccc(NCCN4CCOCC4)nn23)c1	inconclusive: 112 µM [inhibitor, single point]		
Cc1nnc(-c2cc(NCc3cccs3)ccn2)n1C1CCCCC1	inconclusive: 79.4 µM [inhibitor, partial curve]		

Structure (SMILES)	Potency	activity change, negative = cytotoxicity	outcome
Cc1nc([C@H]2CCN(Cc3cn(C)c4ccccc34)C[C@H]2NC(=O)C2CC2)n[nH]1		inactive: -13.1%	
O=C(COc1cccc(-n2cnnc2)c1)NC1CCCc2c1[nH]c1ccccc21 (centres undefined)	inconclusive: 50.1 µM [inhibitor, partial curve, poor fit]		
COc1ccc(F)cc1-c1cccc(C(=O)NCCNC(=O)c2cccc(Cl)c2)c1	inconclusive: 31.6 µM [inhibitor, full curve, poor fit]		
COc1ccc(CCNC(=O)c2nnn3c2COC(c2ccc(C)cc2)C3)cc1OC (centres undefined)	inconclusive: 28.2 µM [inhibitor, partial curve]		
C/C(=C\c1ccccc1)CN1CCCCC12Cc1ccccc1CNC2=O (centres undefined)	inconclusive: 50.1 µM [inhibitor, partial curve, poor fit]		
O=C(O)c1cccc([S+](=O)([O-])N2CC(CNC(=O)c3ccccc3)C3(CN(c4ccccc4)C3)C2)c1 (centres undefined)	inconclusive: 50.1 µM [inhibitor, partial curve, poor fit]		
CC(=O)NC1(C)CCN(Cc2ccccc2-c2ccccc2Oc2ccccc2)C1 (centres undefined)	active: 79.4 µM		
CCNC(=O)N1CCCC1c1noc(CCC(=O)N2CCN(c3ccccc3)CC2)n1 (centres undefined)		inactive: 4.57%	
O=C(c1ccccc1OCC1CCCN(CC2=Cc3ccccc3OC2)C1)N1CCCCC1 (centres undefined)	inconclusive: 44.7 µM [inhibitor, partial curve, poor fit]		
C[C@]1(CO)C2CC[C@@H](O)[C@@H](CC(=O)NCc3cccs3)[C@]2(C)CC[C@H]1OC(=O)Nc1cccc(F)c1 (some centres undefined)	inconclusive: 50.1 µM [inhibitor, partial curve, poor fit]		
CCn1nccc1C(=O)N1CCCCCC1c1nc(C2CC2)no1 (centres undefined)		inactive: -20.5%	
COc1ccc(-c2noc([C@@H](C)NC(=O)c3cc(C)oc3C)c2C(=O)O)cc1			inactive [at 138 µM]
Cc1nnc2ccc(N3CCC(NC(=O)C4CCCC4)CC3)nn12	inconclusive: 56.2 µM [inhibitor, partial curve, poor fit]		
O=C(c1ccccc1Cl)N1CCC2(CC1)OCC(C(=O)N1CCCC1)N2C(=O)c1ccccc1 (centres undefined)	inconclusive: 50.1 µM [inhibitor, partial curve, poor fit]		
O=C1CC2(CCN(C(=O)C3CCCN(C(=O)NC4CCCC4)C3)CC2)Oc2ccccc2N1 (centres undefined)		inactive: -31.4%	
O=C(c1ccc(F)c(F)c1)N1CCC(c2n[nH]c(=O)n2-c2ccccc2)CC1	inconclusive: 56.2 µM [inhibitor, partial curve, poor fit]		
CC(=O)NC1CCN(c2ccnc3ccnn23)C1 (centres undefined)		inactive: -10% [at 138 µM]	
Cc1ccc(N2Cc3c(NCCc4ccc(F)cc4)ncnc3N(C)CC2=O)cc1	active: 35.5 µM		
O=Cc1ccccc1-c1cccc(O)c1	inconclusive: 100 µM [inhibitor, partial curve, poor fit]		
CNC(=O)[C@H]1CN(C(=O)c2cc(C)oc2C)[C@]2(C)C(=O)N(CC3CC3)c3ccccc3[C@H]12	inconclusive: 28.2 µM [inhibitor, partial curve, poor fit]		

Reference: PubChem BioAssay AID1345082 (National Center for Advancing Translational Sciences (NCATS), 2018)
